Measurements: the supplement of paper PMC12340641
The full ranking holds about 1,000 compounds; the median of “relative growth in counter assay (no AraC = 100%, AraC + DMSO = 0%)” is about -1.1, and the highest 2% start at about 20. This is one part of the list.

Test system: HEK293FT dCK*-only
Assay: relative growth in counter assay (no AraC = 100%, AraC + DMSO = 0%); higher = more growth rescue independent of IKZF1
Conditions: compound concentration: 5 uM; AraC concentration: 0.3 uM; overnight pretreatment + 4 days AraC
Procedure: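 Growth recovery screen of the molecular-glue-like (Specs) library. HEK293FT cells expressing a dCK*-IKZF1 fusion (primary) or dCK* alone (counter) were pretreated overnight with compound at 5 uM, then given 0.3 uM AraC for 4 days. Hoechst nuclei were counted by imaging. Primary: normalised to pomalidomide (100%) and DMSO (0%), mean of 2 replicates. Counter: normalised to no-AraC (100%) and AraC+DMSO (0%), single replicate.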

Compound | relative growth in counter assay [%]
CC(=O)N1CCCC1CCc1ccc(Nc2ncc(-c3ccc(F)cc3)s2)nc1 (centres undefined) | -14
Cc1cnc(Nc2cccc(C3CN(C(=O)CN(C(=O)CC(C)C)c4ccccc4)CCO3)n2)s1 (centres undefined) | 9.59
Cc1cnc(Nc2cccc(C3CCN(C(=O)C45CC6CC(CC(O)(C6)C4)C5)CC3)n2)s1 | -23.4
Cn1nccc1/C=C/C(=O)N1CCCC1c1csc(Nc2ccccn2)n1 (centres undefined) | -0.93
Cc1cnc(Nc2cccc(C3CCCN3C(=O)CCOc3ccccc3C)n2)s1 (centres undefined) | -3.51
Cc1cc(C)c2[nH]c3nc(SCC(=O)Nc4ccc(F)cc4)nnc3c2c1 | -10.1
CC(=O)Nc1ccc(-c2csc(Nc3ccccn3)n2)cc1 | 15.7
Cc1cc(C)c2[nH]c3nc(SCC(=O)Nc4cccc(Cl)c4)nnc3c2c1 | -16.7
COCC(=O)N1CCCC1c1cccc(Nc2nccs2)n1 (centres undefined) | -3.54
Cc1cnc(Nc2cccc(C3CCN(C(=O)CCn4ncc5ccccc54)CC3)n2)s1 | 3.03
O=C(CCc1ccccc1)Nc1ccc(S(=O)(=O)Nc2ccccn2)cc1 | 1.91
COc1cc(NS(=O)(=O)c2ccc(NC(=S)NC(=O)/C=C/c3ccco3)cc2)nc(OC)n1 | -4.41
O=C(/C=C/c1ccc(Cl)cc1)Nc1ccc(S(=O)(=O)Nc2ncccn2)cc1 | -21.9
Cc1cnc(Nc2cccc(C3CCN(C(=O)[C@H]4CCCC[C@H]4NC(=O)OC(C)(C)C)CC3)n2)s1 | -9.49
CC(C)(C)CC(=O)Nc1ccc(S(=O)(=O)Nc2ncccn2)cc1 | -0.2
CC(C)c1cccc(OCC(=O)Nc2ccc(S(=O)(=O)Nc3ccccn3)cc2)c1 | 1.61
O=[N+]([O-])c1ccc(S(=O)(=O)Nc2ccc(S(=O)(=O)Nc3ncccn3)cc2)cc1 | 0.33
O=C(CN1CCC(c2cccc(Nc3nccs3)n2)CC1)Nc1ccc(F)cc1 | 7.72
Cc1nc(Nc2cccc(C3CCCN3C(=O)CN3CCc4ccccc4C3)n2)sc1C (centres undefined) | 0.56
COc1cc(NS(=O)(=O)c2ccc(Nc3nc(-c4ccccc4)cs3)cc2)nc(OC)n1 | -18.6
O=C(CS(=O)(=O)c1ccccc1)Nc1ccc(S(=O)(=O)Nc2ncccn2)cc1 | 8.67
O=C(Nc1ccc(S(=O)(=O)Nc2ncccn2)cc1)Oc1ccccc1 | -1.98
Cc1cnc(Nc2cccc(C3CCN(C(=O)CC4CCCCC4)CC3)n2)s1 | -21.1

Compound | relative growth in counter assay [%]
Cc1nc(Nc2cccc(C3CCCN3C(=O)CCCN3C(=O)CNC3=O)n2)sc1C (centres undefined) | 6.76
COc1ccc(/C=C/C(=O)Nc2ccc(S(=O)(=O)Nc3cc(C)nc(C)n3)cc2)cc1 | 0.21
O=C(O)CCOCCNc1cccc2c1C(=O)N(C1CCC(=O)NC1=O)C2=O (centres undefined) | -0.81
COc1cccc(C(=O)N2CCOC(c3cccc(Nc4nc(C)c(C)s4)n3)C2)c1 (centres undefined) | 0.39
Cc1cc(C)nc(NS(=O)(=O)c2ccc(NC(=O)c3oc4ccccc4c3C)cc2)n1 | -5.96
Cc1cnc(Nc2cccc(CC3CCN(C(=O)C4CCCCC4)CC3)n2)s1 | -6.51
Cc1cnc(Nc2cccc(C3CN(C(=O)CCc4ccccc4)CCO3)n2)s1 (centres undefined) | 7.87
Cc1cnc(Nc2cccc(C3CN(C(=O)COc4ccccc4)CCO3)n2)s1 (centres undefined) | -9.61
CCCCc1cnc(Nc2cccc(C3CCN(C(=O)[C@@H]4CCCCN4CCO)CC3)n2)s1 | -19.1
COc1cccc(OC)c1C(=O)Nc1ccc(S(=O)(=O)Nc2cc(C)nc(C)n2)cc1 | 6.06
COc1cc(NS(=O)(=O)c2ccc(Nc3nc(-c4sc(N)nc4C)cs3)cc2)nc(OC)n1 | 4.3
Cc1ccc(OCCCC(=O)Nc2ccc(S(=O)(=O)Nc3nc(C)cc(C)n3)cc2)cc1 | -5.16
CN(CCC(=O)N1CCOC(c2cccc(Nc3nccs3)n2)C1)c1cccc(F)c1 (centres undefined) | 2.6
Nc1ccc(S(=O)(=O)Nc2nccc(/C=C/c3ccccc3F)n2)cc1 | -1.02
O=C(/C=C/c1ccccc1)N1CCC(c2csc(Nc3ccc(F)cn3)n2)CC1 | -6.37
CC(C)(C)C(=O)N1CCOC(c2cccc(Nc3ncc(Cc4ccccc4Cl)s3)n2)C1 (centres undefined) | 3.6
CCCC(=O)Nc1ccc(S(=O)(=O)Nc2ncccn2)cc1 | -4.52
COc1ccc(C(=O)Nc2ccc(S(=O)(=O)Nc3nccc(C)n3)cc2)cc1[N+](=O)[O-] | -4.03
Cc1cnc(Nc2cccc(C3CCN(C(=O)C4CC(=O)OC45CCCCC5)CC3)n2)s1 (centres undefined) | -24.3
CCOCc1ccc(C(=O)N2CCC(c3cccc(Nc4ncc(C)s4)n3)CC2)cc1 | 12.5
Cc1cc(NS(=O)(=O)c2ccc(NC(=O)C(C)C)cc2)nc(C)n1 | -9.51
CCCOc1ccccc1C(=O)Nc1ccc(S(=O)(=O)Nc2nc(C)cc(C)n2)cc1 | 2.83
Cc1cc(C)nc(NS(=O)(=O)c2ccc(NC(=O)Cn3cnc4ccccc4c3=O)cc2)n1 | -5.6

Compound | relative growth in counter assay [%]
Cc1cnc(Nc2cccc(C3CCN(CC(=O)NCc4ccccn4)CC3)n2)s1 | 0.12
CCCc1cnc(Nc2cccc(C3(C(N)=O)CCN(C(=O)C4CCCCC4)CC3)n2)s1 | -17.3
CCS(=O)(=O)Nc1ccc(S(=O)(=O)Nc2nc(C)cc(C)n2)cc1 | 4.93
CC(C)(C)C(=O)N1CCOC(c2cccc(Nc3ncc(-c4cccnc4)s3)n2)C1 (centres undefined) | 4.19
NC1(C(=O)N2CCC(c3cccc(Nc4ncc(Cl)s4)n3)CC2)CC1 | -24.3
CNC(=O)C(c1cccc(Nc2ncc(C)s2)n1)C1CCN(C(=O)[C@H](CC(C)C)NC(=O)OC(C)(C)C)CC1 (some centres undefined) | 8.97
CC(C)N(C(=O)CN1CCOC(c2cccc(Nc3nccs3)n2)C1)C1CCCCC1 (centres undefined) | 2.51
Cc1ccnc(NS(=O)(=O)c2ccc(NC(=O)CCCOc3ccccc3)cc2)n1 | 3.33
Cc1cnc(Nc2cccc(C3CN(C(=O)C4CC=CCC4)CCO3)n2)s1 (centres undefined) | -15.7
COC(=O)C(c1cccc(Nc2ncc(C)s2)n1)C1CCN(C(=O)C2CCCCC2)CC1 (centres undefined) | 4.86
Cc1cc(NS(=O)(=O)c2ccc(NC(=O)c3ccccc3Cl)cc2)nc(C)n1 | 5.37
O=[N+]([O-])c1ccc(S(=O)(=O)Nc2ccccn2)cc1 | -0.83
CC(=O)N1CCC(c2csc(Nc3ncccc3C)n2)CC1 | -0.11
CC(C)C(=O)N1CCCC1c1csc(Nc2ccccn2)n1 (centres undefined) | 6.43
COCC(=O)N1CCOC(c2cccc(Nc3nc(C)cs3)n2)C1 (centres undefined) | 2.47
Cc1nc(Nc2cccc(C3CCCN3C(=O)COc3ccc(F)cc3F)n2)sc1C (centres undefined) | -2.81
CC(C)c1ccc(OCC(=O)Nc2ccc(S(=O)(=O)Nc3ccccn3)cc2)cc1 | 4.55
Cc1ccc(OCC(=O)Nc2ccc(S(=O)(=O)Nc3ccccn3)cc2)cc1 | 7.96
O=C(CSc1nnc2c(n1)[nH]c1ccc(F)cc12)Nc1ccc(F)cc1 | 10.9
Cc1ccnc(NS(=O)(=O)c2ccc(NC(=O)c3ccccc3C)cc2)n1 | -1.56
CN(C)CC1(c2cccc(Nc3ncc(-c4ccccc4)s3)n2)CCN(C(=O)C(C)(C)N)CC1 | -24.6
COc1ccc(N2CC(C(=O)Nc3ccc(S(=O)(=O)Nc4nc(C)cc(C)n4)cc3)CC2=O)cc1 (centres undefined) | 7.32
Cc1cnc(Nc2cccc(C3CCN(CC(=O)Nc4ccccc4F)CC3)n2)s1 | -9.54

Compound | relative growth in counter assay [%]
Cc1cc(C)nc(NS(=O)(=O)c2ccc(Nc3nc(-c4ccc(Cl)cc4)cs3)cc2)n1 | -7.62
O=C(C1CCCCC1)N1CCC(Cc2cccc(Nc3nccs3)n2)CC1 | 18
Cn1nccc1/C=C/C(=O)N1CCC(c2cc3ccccc3c(Nc3nccs3)n2)CC1 | -21.2
Cc1cc(C)nc(NS(=O)(=O)c2ccc(NC(=O)CSc3nc4c(cc3C#N)CCCCC4)cc2)n1 | 5.78
CN(CCC(=O)N1CCCC1c1cccc(Nc2nccs2)n1)c1ccccc1F (centres undefined) | 2.31
Cc1cc(C)nc(NS(=O)(=O)c2ccc(NC(=O)C(C)C)cc2)n1 | 2.66
Cc1cc(C)nc(NS(=O)(=O)c2ccc(NC(=S)NC(=O)c3cccnc3)cc2)n1 | 1.06
CCCC(C)C(=O)Nc1ccc(S(=O)(=O)Nc2nccc(C)n2)cc1 (centres undefined) | -3.64
COc1ccc(S(=O)(=O)Nc2cccc3cn[nH]c23)c(C)c1C | -0.77
Cc1cc(C)nc(NS(=O)(=O)c2ccc(NC(=O)c3cccs3)cc2)n1 | -2.72
CCOC(=O)C(=O)Nc1ccc(S(=O)(=O)Nc2ncccn2)cc1 | 1.3
Cc1nc(/C=C/C(=O)N2CCC(c3cc4ccccc4c(Nc4nccs4)n3)CC2)cs1 | -21.8
COc1ccc(C(=O)Nc2ccc(S(=O)(=O)Nc3nccc(C)n3)cc2)cc1 | -6.7
Cc1cc(C)c(C(=O)Nc2ccc(S(=O)(=O)Nc3cc(C)nc(C)n3)cc2)c(C)c1 | 4.33
Cc1cc(C)nc(NS(=O)(=O)c2ccc(NC(=O)c3ccccc3C)cc2)n1 | 11.1
Cc1cc(NS(=O)(=O)c2ccc(NC(=O)CCCOc3ccc(Cl)cc3)cc2)nc(C)n1 | -1.83
Cc1nc(Nc2cccc(C3CCN(C(=O)C4CC=CCC4)CC3)n2)sc1C (centres undefined) | 7.52
Cc1cnc(Nc2cccc(C3CCCN3C(=O)c3nccc4ccccc34)n2)s1 (centres undefined) | -8.57
COc1ccc(OCC(=O)Nc2ccc(S(=O)(=O)Nc3nc(C)cc(C)n3)cc2)cc1 | 1.1
O=C(Nc1ccc(S(=O)(=O)Nc2ncccn2)cc1)c1ccco1 | -2.29
Cc1cc(C)c2[nH]c3nc(SCC(=O)Nc4ccc(Cl)c([N+](=O)[O-])c4)nnc3c2c1 | -15.8
CC(=O)Oc1ccc(N2C(=O)c3ccc(Oc4cccc(N)c4)cc3C2=O)cc1 | 0
Cc1cc(NS(=O)(=O)c2ccc(NC(=O)C(F)(F)F)cc2)nc(C)n1 | 2.14

Compound | relative growth in counter assay [%]
CCOc1ccccc1C(=O)Nc1ccc(S(=O)(=O)Nc2ccccn2)cc1 | -6.95
Cc1csc(Nc2cccc(C3CCN(C(=O)CO)CC3)n2)n1 | 16.9
O=C(O)CCCNc1cccc2c1C(=O)N(C1CCC(=O)NC1=O)C2=O (centres undefined) | 2.89
Cc1cc(C)nc(NS(=O)(=O)c2ccc(NC(=O)c3ccc(F)cc3)cc2)n1 | 4.49
Cc1cnc(Nc2cccc(C3CN(C(=O)C4(c5ccccc5)CC4)CCO3)n2)s1 (centres undefined) | -7.66
CC(=O)N1CCCC(c2csc(Nc3ccccn3)n2)C1 (centres undefined) | 0.33
O=C(COc1ccc(F)cc1)N1CCC(c2cccc(Nc3nccs3)n2)CC1 | 6.47
COc1ccccc1C(=O)Nc1ccc(S(=O)(=O)Nc2ncccn2)cc1 | -2.6
CCC(Oc1ccccc1)C(=O)Nc1ccc(S(=O)(=O)Nc2ncccn2)cc1 (centres undefined) | 27.4
Cc1ccc(C)c2c1[nH]c1nc(SCC(=O)Nc3ccc(Cl)c(C(F)(F)F)c3)nnc12 | -1.4
Cc1cc(C)nc(NS(=O)(=O)c2ccc(NC(=S)NC(=O)/C=C/c3ccccc3)cc2)n1 | -6.41
Cc1csc(Nc2cccc(C3CCN(C(=O)c4cccnc4)CC3)n2)n1 | 5.19
Cc1ccccc1OCCCC(=O)Nc1ccc(S(=O)(=O)Nc2ncccn2)cc1 | -7.62
Cc1cc(C)nc(NS(=O)(=O)c2ccc(NC(=S)NC(=O)c3ccc(F)c(F)c3)cc2)n1 | -3.6
Cc1ccc(Oc2ccc(N3C(=O)c4ccc(Oc5ccc(N)cc5)cc4C3=O)cc2)cc1C | -6.56
COc1cc(NS(=O)(=O)c2ccc(NC(=O)CCl)cc2)nc(OC)n1 | -11.4
Cc1csc(Nc2cccc(C3CCCN3C(=O)c3cn4cc(Cl)ccc4n3)n2)n1 (centres undefined) | 22.3
COc1ccc2[nH]c3nc(SCC(=O)Nc4ccc(F)cc4)nnc3c2c1 | -18.8
CCN(CC)C(=O)CN1CCOC(c2cccc(Nc3nc(C)c(C)s3)n2)C1 (centres undefined) | 19.4
Cc1csc(Nc2cccc(C3CCCN3C(=O)CCCc3ccc(F)cc3)n2)n1 (centres undefined) | 1.52
Cn1nccc1/C=C/C(=O)N1CCCC(c2csc(Nc3ccccn3)n2)C1 (centres undefined) | 29
COCc1nc2ccccc2n1CC(=O)N1CCOC(c2cccc(Nc3ncc(C)s3)n2)C1 (centres undefined) | -6.93
